Out of some 45,000 compounds screened, about 65 (0.1%) were called active. The call rests on the fitted dose curve; in most records, active means well fitted activation curve with a large enough effect; inconclusive means small, poorly fitted or top-dose-only effect; inactive means no such curve, though single readings can be large or run the other way. The list shows a part of the results.
Molecular target: Galactocerebrosidase (Homo sapiens) (UniProt P54803)
Assay: A Novel Cell-Based Assay to Identify Small Molecules for B -Galactocerebrosidase; further: 0% is about no effect; nearly all actives have a fitted effect of over 65% in size
Details: 145M-Twi-hGALC-G270D cells, HMU-beta-Gal fluorescence, 48 h; series mostly up to 57.5 µM; activation: at the top concentration
Method in brief: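 qHTS, 1536-well; 145M-Twi-hGALC-G270D cells (WT line also made) in DMEM/F12 + 10% FBS; compound incubation on live cells; HMU-β-gal 0.1 mM final, pH 5.2, NaTC; carbonate stop; fluorescence increase = enhanced residual activity.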

Sequence of UniProt P54803 (P54803 whole entry, looked up): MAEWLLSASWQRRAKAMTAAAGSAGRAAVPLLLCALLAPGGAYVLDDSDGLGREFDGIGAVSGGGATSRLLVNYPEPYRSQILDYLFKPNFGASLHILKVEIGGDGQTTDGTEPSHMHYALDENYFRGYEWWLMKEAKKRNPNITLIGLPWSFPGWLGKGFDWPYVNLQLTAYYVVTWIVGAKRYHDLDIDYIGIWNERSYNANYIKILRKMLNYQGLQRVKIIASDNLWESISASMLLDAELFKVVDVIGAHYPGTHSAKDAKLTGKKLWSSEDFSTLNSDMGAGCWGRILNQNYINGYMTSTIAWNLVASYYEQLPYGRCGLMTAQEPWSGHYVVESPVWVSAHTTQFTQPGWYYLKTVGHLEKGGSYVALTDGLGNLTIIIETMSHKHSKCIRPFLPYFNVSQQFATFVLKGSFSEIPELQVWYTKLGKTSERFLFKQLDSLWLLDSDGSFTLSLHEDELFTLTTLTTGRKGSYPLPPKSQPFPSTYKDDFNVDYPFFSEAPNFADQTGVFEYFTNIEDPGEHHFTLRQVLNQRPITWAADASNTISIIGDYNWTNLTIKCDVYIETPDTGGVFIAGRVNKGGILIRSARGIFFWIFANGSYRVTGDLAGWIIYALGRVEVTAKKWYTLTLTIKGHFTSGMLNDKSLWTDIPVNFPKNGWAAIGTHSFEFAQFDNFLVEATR

activation, inactive:
Cc1cccc(-c2nnc(SCC(=O)N3CCCCC3)o2)c1 -3.54%
CSc1nnc2n(-c3cccc(C)c3)c(=O)c3c4c(sc3n12)CCCC4 -17.1%
CCOc1ccc(-c2nnc(SCC(=O)Nc3cc(C)ccc3OC)o2)cc1 -16.4%
CC(C)c1ccc(NC(=O)Cn2c3ncccc3c(=O)n2-c2ccccc2)cc1 -6.15%
COc1cc(-c2nc(C(N)=O)c3c(n2)n(-c2cccc(C)c2)c(=O)n3C)cc(OC)c1OC -17.3%
CCn1c(CN2CCCCC2)nc2cc(NC(=O)c3cccc([N+](=O)[O-])c3)ccc21 -13.6%
Cc1c(C(=O)Nc2cccc(-c3nc4ccccc4s3)c2)oc2ccc(F)cc12 -4.82%
Cc1ccc(CCNC(=O)CSCc2nc(-c3ccc(C)cc3)oc2C)cc1 -12.4%
COC(=O)c1ccccc1NC(=O)c1ccc(=O)n(Cc2cccc(C)c2)c1 -1%
N#Cc1cccc(NC(=O)C2CCN(c3nc(-c4ccc(Cl)cc4)no3)CC2)c1 -10.1%
Cc1ccc(CNC(=O)c2nn(C)c3c2CSc2ccc(C)cc2-3)cc1 -20.6%
Cn1c(=O)oc2cc(S(=O)(=O)NC(Cc3ccccc3)C(=O)NCc3ccccc3Cl)ccc21 (stereo unspecified) 0.522%
CCc1ccc(C(=O)c2cn(CC(=O)Nc3ccc4c(c3)OCO4)c3ccc(F)cc3c2=O)cc1 -4.5%
COc1ccc(-c2n[nH]c3c2cnc2cc(OC)c(OC)cc23)cc1 -11.4%
CCOc1ccccc1CNC(=O)C1CCN(c2nc3ccccc3nc2C(F)(F)F)CC1 -12.6%
CCN(CC)S(=O)(=O)c1ccc2c(c1)c(=O)c(C(=O)N1CCN(c3cccc(Cl)c3)CC1)cn2C -15%
Cc1ccc(CSC2=Nc3ccccc3C3=NC(CC(=O)NCc4ccc5c(c4)OCO5)C(=O)N23)cc1 (stereo unspecified) -11%
Cc1cccc(C2N=C(N)Nc3nc4ccccc4n32)c1 (stereo unspecified) -11.1%
COc1cc(OC)c(NC(=O)c2ccc3c(c2)N(Cc2ccc(C)cc2)CCS3)cc1Cl -17.6%
O=C(Nc1ccc2nc(SCC(=O)N3CCCc4ccccc43)sc2c1)c1ccc(Cl)cc1 -15.3%
CCCS(=O)(=O)Nc1cc(-c2cn3ccc(C)cc3n2)ccc1C -6.37%
Cc1ccc(-n2ncc(C(=O)NC3CCN(Cc4ccccc4)CC3)c2C2CCN(C(=O)OC(C)(C)C)CC2)cc1C -15.3%
COc1ccc(CCCc2nnc(SCC(=O)Nc3ccc(C)cc3)o2)cc1C -10.3%
COc1ccc(C(=O)Nc2nc3n(n2)C(c2ccc(Cl)cc2)C=C(c2ccccc2)N3)cc1OC (stereo unspecified) -13.9%
Cc1ccc(C)c(CN2C(=O)c3ccccc3S(=O)c3ccc(C(=O)N4CCOCC4)cc32)c1 (stereo unspecified) 4.19%
Cc1ccc(S(=O)(=O)c2nnn3c2nc(N2CCOCC2)c2sccc23)cc1C -9.12%
COc1ccccc1N1CCN(S(=O)(=O)c2c(C)sc3ncn(CC(=O)Nc4ccc(C)cc4Br)c(=O)c23)CC1 -23.2%
Cc1ccc(Nc2sc(C(=O)c3ccc(F)cc3)c(N)c2S(=O)(=O)c2ccc(C)cc2)cc1 -24%
Fc1ccc(-c2nn(-c3ccc(Cl)cc3)c3c2cnc2ccc(F)cc23)cc1 -7.89%
CCOc1ccccc1NC(=O)Cn1c(=O)n(Cc2cccs2)c(=O)c2cccnc21 4.5%
CCC(C(=O)NCCc1cc(OC)ccc1OC)n1nc(C)c2c(C)n(-c3ccccc3)nc2c1=O (stereo unspecified) 3.04%
CC(Sc1nc(=O)cc(N)n1CCc1ccccc1)C(=O)Nc1cccc(Cl)c1 (stereo unspecified) -4.02%
COc1ccc(-n2c(=O)c3ccccc3n(Cc3ccccc3Cl)c2=O)cc1 0.731%
COc1ccc(OC)c(NC(=O)Cn2c(=O)cc(C)c3c(C)nn(-c4cccc(Cl)c4C)c32)c1 -3.81%
CN1CC(=O)Nc2cc(C(=O)O)ccc21 -12.4%
O=C(CN1C(=O)CCSc2ccccc21)Nc1ccc(C(F)(F)F)cc1 14.2%
Cc1ccc(CNC(=O)C2CCCN(c3ncnc4onc(-c5ccc(F)cc5)c34)C2)cc1 (stereo unspecified) -8.99%
CCCN1Cc2cccc(C(=O)Nc3ccccc3C(=O)OC)c2C1=O -16.3%
CCOc1ccc(NC(=O)CN2CCN(CC(=O)Nc3ccc(F)cc3F)CC2)cc1 -10.9%
CCOC(=O)c1ccccc1NC(=O)Cn1ccn2nc(-c3ccc(OCC)cc3)cc2c1=O -16.4%
CCOc1ccccc1C(=O)Nc1ccc(S(=O)(=O)N(Cc2ccccc2)c2ccccc2)cc1 -13.1%
Cc1ccc(-n2cc(C(=O)OCc3ccc(F)c(F)c3)c3ccccc3c2=O)cc1 -10.6%
Cc1ccccc1-c1noc(-c2nnn(-c3ccccc3C)c2N)n1 -15.1%
Cc1cccc(C(=O)N(Cc2ccccc2F)C2CCS(=O)(=O)C2)c1 (stereo unspecified) -17.6%
COc1ccc(Cc2nc3c4cnn(-c5cccc(F)c5)c4ncn3n2)cc1 -2.07%
COC(=O)c1c(NC(=O)COc2cccc(C(F)(F)F)c2)sc2c1CCCC2 -17.7%
COc1ccc(N2CCN(C(=O)c3cnn(-c4ccc(OC)cc4)c3C3CCN(C(=O)OC(C)(C)C)CC3)CC2)cc1 -14.5%
COc1cc(C(=O)N2CCN(C(=O)COc3cccc(C)c3)CC2)cc(OC)c1OC -15.5%
CCN(CC)c1ccc(NS(=O)(=O)c2cc(-c3cc(C)no3)ccc2C)c(C)c1 -30.6%
CCCNC(=O)N1CCCN(S(=O)(=O)c2ccc3c(ccn3CC)c2)CC1 -3.46%
CCCCOc1cccc(C(=O)N2CCN(CCc3ccncc3)CC2)c1 -8.79%
Cc1c(Cl)cccc1-c1ccc(/C=C(\C#N)c2nc3ccccc3[nH]2)o1 -15.2%
Cc1cccc(C)c1-n1ncc(C(=O)NC2CCCC2)c1C1CCN(C(=O)OC(C)(C)C)CC1 12.3%
O=C(c1ccc2c(c1)CCN2S(=O)(=O)c1ccc(Cl)cc1)N1CCN(c2ccc(F)cc2)CC1 -11.4%
CCOc1ccc(NC(=O)NCc2cccn2Cc2ccccc2)cc1 -16%
Cc1nnc(N2C(=O)c3oc4ccccc4c(=O)c3C2c2ccc(Cl)cc2)s1 (stereo unspecified) -22.6%
Cc1ccc2c(c1)C(=O)OC(C(=O)Nc1ncc(Cc3ccc(Cl)cc3)s1)C2 (stereo unspecified) -13.1%
Cc1c(C(=O)OC2CCCCCC2)[nH]c2c1C(=O)CC(c1ccc(Cl)cc1)C2 (stereo unspecified) -22.4%
O=C(COc1ccc(Cl)cc1Cl)Nc1cccc2cccnc12 -11%
CC(=O)O[C@]1(C(C)=O)CC[C@H]2[C@@H]3C[C@H](C)C4=CC(=O)CC[C@]4(C)[C@H]3CC[C@@]21C -3.92%
Cc1cc(C)cc(NC(=O)Cn2cc(C(=O)c3cccs3)c3ccccc32)c1 -9.07%
COc1ccc(Nc2c(-c3ccc(C)o3)nc3cc(C)ccn23)cc1 -11.4%
Cc1ccc2oc(-c3ccc(C)c(NC(=O)/C=C/c4ccc(Cl)cc4)c3)nc2c1 0.365%
Clc1cccc(C(c2ccc3nc[nH]c3c2)n2ccnc2)c1 (stereo unspecified) -7.38%
Cc1ccc2[nH]c3c(=O)n(CC(=O)N(CCN(C)C)Cc4ccccc4)ncc3c2c1 -10.8%
CC(=O)N1CCC(N(Cc2ccco2)C(=O)Nc2ccc(C)c(Cl)c2)CC1 -2.07%
CC(C)NCC(O)c1ccc2ccccc2c1 (stereo unspecified) -13.9%
COc1cc(NC(=O)c2nc3nc(C)cc(C(F)F)n3n2)c(OC)cc1Cl -6.82%
CCOc1ccc(N2CC(NC(=O)C3CCCCC3)CC2=O)cc1 (stereo unspecified) 4.7%
Cc1ccc(CNC(=O)c2ccc(CN3CC(=O)N4CCCCC4C3=O)cc2)cc1 (stereo unspecified) -16.8%
CCOC(=O)CNC(=O)N1[C@H](c2cccs2)[C@@H](C)C(=O)[C@@H](C)[C@@H]1c1cccs1 -3.8%
O=S1(=O)c2ccccc2N(Cc2ccc(Cl)cc2)c2ccccc21 -2.57%
CCc1c(C)nc2nncn2c1NCc1ccccc1 -9.38%
COc1ccc(S(=O)(=O)N2CCN(c3cccc(C)c3C)CC2)c2ccccc12 7.11%
COc1ccc2c(c1)c(=O)c(C(=O)c1ccc(F)cc1)cn2CC(=O)Nc1ccc2c(c1)OCO2 -19.9%
CCCCOc1ccc(Cn2c(=O)oc3ccc(C)cc32)cc1OC -14.8%
CCc1nnc(NC(=O)c2nc(SCc3ccccc3F)ncc2Cl)s1 -7.08%
COc1ccc(Cl)cc1C(=O)Nc1nnc2n1CCS2 -8.73%
Cc1ccc(NC(=O)C2CCN(c3nnc(C)c4c(C)n(-c5ccccc5)nc34)CC2)c(Cl)c1 7.86%
CC(C)CCNC(=O)Cn1c(-c2cccs2)cc2cc(F)ccc21 -9.4%
Cc1cc(Br)ccc1NC(=O)c1sc2nc3n(c(=O)c2c1C)CCCC3 -12.8%
O=C(CCCCCn1c(=O)c2sccc2n(Cc2ccc(Cl)cc2)c1=O)NCc1ccc2c(c1)OCO2 -23.7%
Cc1ccc(S(=O)(=O)N(CC(=O)NCCSc2ccc(Cl)cc2)c2ccccc2C)cc1 -17.9%
COCCCNC(=O)CCn1c(=O)c2ccccc2n(CC(=O)Nc2cc(Cl)ccc2OC)c1=O -21.4%
CCN(Cc1ccccc1)Cc1c(O)ccc2oc(C)c(C(=O)Nc3ccc(C)cc3C)c12 -9.16%
C=Cc1ccc(Cn2c(=O)n(-c3cccc(Cl)c3)c(=O)c3c4c(sc32)CN(C(C)=O)CC4)cc1 -6.73%
O=C(NCCc1ccc(Cl)cc1)c1ccc2c(c1)N(Cc1ccc(Cl)cc1)C(=O)CS2 -8.24%
Cc1cc(C)c(NC(=O)Cn2nnc(S(=O)(=O)c3ccc(C)c(C)c3)c2N)c(C)c1 -28.1%
CC(C)c1ccc(NC(=O)N2c3ccccc3Sc3ccccc32)cc1 -13.4%
CN1C(C(=O)Nc2cccc(O)c2)=CC(c2ccco2)=NS1(=O)=O -9.09%
CCCCN(CC)c1nc(-c2ccccc2F)nc2ccccc12 -11.8%
Cc1cccc(N2CCn3c2nc2c3c(=O)n(C/C=C/c3ccccc3)c(=O)n2C)c1 -4.61%
Cc1ccc(NC(=O)Cn2c(=O)n(Cc3nc(C)no3)c(=O)c3cc4c(cc32)OCO4)cc1 -3.26%
Cc1cc(NS(=O)(=O)c2ccc3oc(=O)c4ncn(C)c4c3c2)ccc1Br -7.99%
CC(C)c1ccc(N2C(=O)CSC23C(=O)N(Cc2ccccc2)c2ccccc23)cc1 (stereo unspecified) -43%

Potency, inactive:
O=C(O)c1cc(-c2ccccc2)nc2ccccc12
